Source: the supplement of paper PMC11417369
This is one part of the list.

test system: PfAP2-HC AP2 domain (GST-tagged); experiment: gcPBM binding intensity (ln(normalized median fluorescence intensity)); higher = stronger DNA binding
How it was run: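 Using an Agilent 4 × 180k array, primer-extended double-stranded 36-bp intergenic genomic probes and negative controls were exposed for 1 h to GST-fused P. falciparum DNA-binding domains expressed in E. coli. Binding was carried out in 1× PBS with 1% milk, 0.2 mg/ml BSA, 0.5% salmon testes DNA and 0.03% Triton X-100, and protein was detected with Alexa488 anti-GST antibody and a 488 nm scan. Binding intensity is the highest Masliner-normalised natural-log median intensity across replicate spots of either probe orientation.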

Sequence | gcPBM binding intensity (ln)
TACTATATCATTTATTGTACAATATTTCTTCAGAAA [XGTACX_site1008] | 9.66
CTTTGCCTTAAAAAGGAACACACATGCTTTTTTTAG [CACACA_site8219] | 9.66
TATAAAAGACTAAATATTATAGAAATATAAATATAA [TGCATGCA_negctrl_site237] | 9.37
TAACAAGGTTTATATGCATGCAAACATAACCAAAAA [TGCATGCA_site824] | 9.54
AATGGGTAAACATACACACACACATCTATATTTATA [CACACA_site7025] | 10.8
ACTAGACAAAATATAATGCACACTATTATTTTTATT [CACACA_site2726] | 9.79
AATAATATACATATATATATTATATTGTAATTTTGT [TGCATGCA_negctrl_site1] | 9.64
CATGAGGTATAAAAGGTGCAAATTAATGAGAACATT | 9.77
TTATATCAAGGGAATGCATGCATATCGTTTTGTATT [TGCATGCA_site327] | 9.63
TATTCTTATATATATACACACACAAAATATCTACAA [CACACA_site8144] | 9.95
TTGCATTGATCAAACATACACACATGGTTAATAAAA [CACACA_site2084] | 9.68
TATTTCTCACTGTATGGTACAGATATAAATTTTTAT [XGTACX_site8776] | 9.62
TATATATATATATATGTGCGCATATATTTTTTTGTA [GTGCAC_site9983] | 10.1
ACAAAATTTACAAAATGTACAAAATATACAAAATAT [XGTACX_site6465] | 9.75
CACAAATAAATATTCACACATATATGTCTTATATAT [CACACA_site5323] | 9.97
ATTACAATAAATTCGTGTACATGATACCGCCGCTAC [XGTACX_site8997] | 9.47
ATCAAATTTTTGTTATGTACACAATCATTTAATAAA [XGTACX_site810] | 9.55
TAATTATTATTAAATACACACACATACCTCCATGTT [CACACA_site9134] | 10.5
AAAAAAAAAAAATAGGTGCGTGTTACTTTTGTATGC [GTGCAC_site9524] | 9.79
AATTAACCGTGACACACACACATATAAATATAAATA [CACACA_site7790] | 10.6
TGCCCTTTGGTTATAACACACATGCACACGTAAATA [CACACA_site7750] | 10
GGGAATATATAAGATACACACACAAATTAAATATAA [CACACA_site8898] | 10.5
TATATATATATATATACACACACACCCACCAAAGCG [CACACA_site7904] | 10.1

Sequence | gcPBM binding intensity (ln)
ATGAAATATGCACAGTGTACTTTTATGAGGAACATA [XGTACX_site426] | 9.69
TTTTTAATACAAAAAAAATAATATGTTATATTTCAA [CACACA_negctrl_site35] | 9.38
TACAATTTATGACACACACACAATAATACCTATATA [CACACA_site6704] | 10.3
TATATATATATATGTGCACACATAAAGATATTATTT [CACACA_site3734] | 10.4
AATAAAATAATAGGCACACATATATATATATATTAT [CACACA_site273] | 9.9
ATATATCTACATATATGTACATATATGTATATGTAT [XGTACX_site5432] | 9.8
ATATCCTACTTCTAGTGTACATATATGGACTGATGA [XGTACX_site3683] | 9.54
CGTATTTTAATATTTACACACTTATTTTTTATATAA [CACACA_site125] | 9.78
AATAAAAAAATAAAAAAAAAAAAAAATAAAAAAAAA [GTGCAC_negctrl_site12] | 9.42
TTTTGTAAAAGGTATATATATATATATATATATATA [GTGCAC_negctrl_site734] | 9.38
TTTATATAGAAAAATTGTACGAATTACTTTTTTATA [XGTACX_site6843] | 9.47
TATAGCATATTTCACACACACATAATGAATATTATA [CACACA_site3545] | 10.1
TTATTTTCTTTCTATGCACACGCACGTATTTGCCCA [CACACA_site9104] | 9.93
TATAGTAAAATTAGGGTGCTTTTGTAACAAAAAAAA | 9.74
TGCTTCATAAATAAAACATGCAATATAGAAATTAAA [TGCATGCA_site690] | 9.48
AGAGTAGGAAATGGAAAAATAAAATAAATAAATAAA [XGTACX_negctrl_site69] | 9.66
AAATATATATACCACACACACATACCTCTATTTGTA [CACACA_site1854] | 11.1
AATCCTTTAAAACACACACACAAAAAAAAAAAAAAA [CACACA_site642] | 10.4
TTTAACGTTGAATATACACACATATATTTATTTATA [CACACA_site7695] | 9.81
AAAATGTACTTTTTCTAAAGAGTAATGATGCTTGAT [CACACA_negctrl_site1124] | 9.52
ATATATCATAATAAAAGTACTTATATATTTTATATA [XGTACX_site560] | 9.51
AAAATAAATAAATATACACACCATATATATATTTTT [CACACA_site5573] | 9.85
TACAAAAAAAGATGATGTACAATGAAAAATAAGAAA [XGTACX_site5840] | 9.87

Sequence | gcPBM binding intensity (ln)
AAAAAAAAAAAAAACACACACACAAATACAAATACA [CACACA_site414] | 11.5
ATAAATAATTGTAGTTGTACATGATATTTTTATTAC [XGTACX_site550] | 9.66
AAATGGACCTAATTATCACACATTATACTCGTTTTC [CACACA_site5996] | 9.77
TTGTTAAAATTATTAAGTTAAATATCGATTTGTAAA [XGTACX_negctrl_site429] | 9.29
TATAAGTTTATATATACACACATATATATATATATA [CACACA_site3274] | 9.97
ATATTTATAACTTGTACACACAAATATGCATATATA [CACACA_site7583] | 9.89
TTAAAATTTTTTTTTTTTTTTTTTTTTTTTTTTTTC [CACACA_negctrl_site957] | 8.97
TTATTATTCCCTCATTTTGTTACCATTATTTCAATT [CACACA_negctrl_site1023] | 9.92
AAAATAAAAAGAAAAAATAAAAAGAAAAAATAAAAA [CACACA_negctrl_site120] | 9.57
AGTGAAAAAAAATTTACACACATAAAATATAAACGA [CACACA_site3724] | 9.81
AAAAAAAATATAAGTGGTACTCACATAAAGACATAT [XGTACX_site3709] | 9.93
AAATAAAATACATATAAACACACATATAAACCAACA [CACACA_site8789] | 10.2
TTTTTTATTCTTTTTGCACACAGGAAATTTACAGAT [CACACA_site1090] | 9.81
TTTTTAGTTCATTAAACACACAAAAAAAAAAATAAA [CACACA_site6035] | 9.53
TAATACTTTTAATCTACACACGCTGAGACATGCTTT [CACACA_site1484] | 9.76
TTATATAATCCTTTCAAACACACAAAATATAATTAA [CACACA_site1830] | 9.62
ACATAAGACACAAATACACACAAAAATATGTAACAA [CACACA_site7836] | 10.1
TTTTATGAAAAGTATTGTACGTATAATTTATATGTA [XGTACX_site1639] | 9.53
TGCTATAATTTATATACACACAAATATATACGCATA [CACACA_site4096] | 9.83
TATGTATGTGCTTGTGCGCACCGATAATATAGCCAA | 9.68
TCTCATAGTAGACACACACACACACGCACATATATA [CACACA_site6916] | 11.3
ATAATAATTAACCTATGTACATAGGAAAGTCATAAA [XGTACX_site4387] | 9.83
AAAAAAAAAAAACACACACACACATACACATACATA [CACACA_site2858] | 10.5

Sequence | gcPBM binding intensity (ln)
GAAGAAAAATAAAAAGTGCAAAAAAAGTAAAAATTT [GTGCAC_site9897] | 9.79
TATATAAATAGACACACACACACCTTATAATTACTA [CACACA_site7828] | 10.8
TTGGAAAAAGTGAAATGTACATATATATTTATTATT [XGTACX_site6946] | 9.53
AAAGGATTTATACTAGTGCAAAAATATAAAAATATA | 9.72
AATAATAAAGTGAACACACACATATAACATCTATAT [CACACA_site7868] | 10.1
GAAGTTTTTTAAAGATGTACTTTTTAAAAATAATCT [XGTACX_site263] | 9.35
TCCATATATGCCTTATGTACATATACCAAATTAACC [XGTACX_site6513] | 9.65
TTTGGCTAGTTAGGCCGTACATGTAAATAATATATA [XGTACX_site1138] | 9.47
TTCTTATAAATATACACACACAAAATATCTACAATG [CACACA_site6487] | 10
TGTGTAAGATCTTGGATGATGATAAGAATCTACTAG [CACACA_negctrl_site1167] | 9.47
TTATAAGATTTATGTACACACATATACTCACCTCTA [CACACA_site729] | 9.92
CCTTAAAATAAGATATGTACGCAAAGGAAAACAAAG [XGTACX_site6057] | 9.9
AATATAAATACTCCTACACACATATATATATATATA [CACACA_site3010] | 10.2
GACACAAAAAAATAATAATAATAATAATAATAAATA [XGTACX_negctrl_site145] | 9.75
ACAAATACAAAAAAAGGTACACACATAATATATTTA [XGTACX_site5515] | 10.1
TTTGTTTTTAATTTCGCACACACCTTGTGGAAAAAA [CACACA_site577] | 9.88
AAATATTTTATACTTGCACACAAAATATATTAAAAT [CACACA_site8606] | 9.77
ATAATAAATAAAATAACACACATATATAAATATATA [CACACA_site170] | 9.87
ATTAATAAAAAATTTTAAAAAATAAATAAAATAAAA [TGCATGCA_negctrl_site113] | 9.36
ATTTTTATTCAGTTCACACACGCTTTAATATTATAT [CACACA_site3465] | 10
